Several values for one entry are separate records, joined by “and”; a condition that tells them apart may be missing. Equal entries are not always repeated. The inconclusive results got no clear call from the source; some entries with a clear call stand among them for comparison. Calls come from the whole dose curve; as a rule, active = well fitted inhibition curve with a large enough effect; inconclusive = small, poorly fitted or top-dose-only effect; inactive = no such curve, though single readings can be large or run the other way. Potencies of inconclusive entries are doubtful fits and often do not repeat.
Experiment: Primary qHTS for small molecule stabilizers of the endoplasmic reticulum resident proteome: Secreted ER Calcium Modulated Protein (SERCaMP) assay (AID 1508630)
Settings: SH-SY5Y GLuc-SERCaMP (Gaussia luciferase released on ER calcium loss) secretion, thapsigargin, luminescence; series mostly up to 38.4 µM
Procedure, shortened: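 The SH-SY5Y reporter protocol was run at 3 concentrations up to 38.3 uM (primary) or 11 concentrations (follow-up): 16 h compound, 100 nM thapsigargin for 4 h, then extracellular luciferase luminescence.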
Potency is the fitted concentration of half-maximal effect; tags give direction and shape of the fitted curve.

Row | SMILES | Potency
1 | O=Nc1c(-c2c(O)[nH]c3cc(Br)ccc23)[nH]c2ccccc12 | inconclusive: 18.8 µM [inhibitor, partial curve] and inconclusive: 20 µM [inhibitor, single point]
2 | CC(O)(P(=O)(O)O)P(=O)(O)O | inconclusive: 31.6 µM [inhibitor, partial curve, poor fit]
3 | O=c1c2ccccc2nc2n1CCc1c-2[nH]c2ccccc12 | inconclusive: 2.7 nM [inhibitor, full curve, poor fit] and inactive
4 | CC[C@]1(O)C[C@@H]2CN(CCc3c([nH]c4ccccc34)[C@@](C(=O)OC)(c3cc4c(cc3OC)N(C=O)[C@@H]3C45CCN4CC=C[C@](CC)([C@H]45)[C@@H](OC(C)=O)[C@]3(O)C(=O)OC)C2)C1 (some centres not stated) | inconclusive: 14.9 µM [inhibitor, partial curve, poor fit]
5 | CC(=O)NCCc1c[nH]c2ccc(O)cc12 | inconclusive: 10 µM [inhibitor, partial curve, poor fit]
6 | Cc1cccc(C#Cc2ccccc2)n1 | inconclusive: 35.5 µM [inhibitor, partial curve, poor fit]
7 | O=C(O)c1cc(O)c(O)c(O)c1 | inconclusive: 31.6 µM [inhibitor, partial curve, poor fit]

Source: PubChem BioAssay (NCATS)
